B1: chr9:128810308:128810409:+|3pUTR|ENSG00000107021|unk|FALSE|unique (ssRNA)
RNA: GGGAGUUCUACAGUCCGACGAUCUACAGAUUGAGCUGUAUGAAUUCAGCGGGUCUCACUCCAGAGGGUCAGAACGUUUGCUUUAGUUUUUUCAUCUGUUUUGUUCCUUGAGUCAGUGCUGUUGAUGACGAGUUGUCUUGAAUACAACAGAGGAUUGAGCAUCA
B2: ENSG00000136451:be:win_251|CDS|ENSG00000136451|bound_else_gene|NA|bound_elsewhere_windowed (ssRNA)
RNA: GGGAGUUCUACAGUCCGACGAUCGGGACAGCUAUCACCUGAGGCGCCACGAAUCCUGCCACACAGGGAUCAAGUUGGUGUCCCGGCCAAAGAAAACCCCCACCACGGUGGUUCCCCUUAUCUCUACCAUCGCUGGGGACAGCACAACAGAGGAUUGAGCAUCA
B3: chr11:43342853:43342954:+|3pUTR|ENSG00000166181|msi1|total|mutant (ssRNA)
RNA: GGGAGUUCUACAGUCCGACGAUCCCCGUUCUGCUGAUAAAGAUCAUCAGUUUUGAAAGGUUACUGAUUUUCCUCUUCCCUCUCCGUUUUUUACCCAAUAUAUGGAGAAGAGUAAUGGUCAAUCUUAACAUUUUGUUUUAAUUGCAACAGAGGAUUGAGCAUCA
B4: chr19:38730201:38730298:+|3pUTR|ENSG00000130402|msi1_unk|FALSE|overlapping (ssRNA)
RNA: GGGAGUUCUACAGUCCGACGAUCCAGAGAAUUACUAUUUACUUUAUUAACUUACGGAUUUAUUAUAUAAAUAUAUAUUCACCUAGCAACAUAUCUCUGCCGUCUCUCCUGCUCUCAUAAUGAAGACAUAGCCGAUUCUCUGCCCAACAGAGGAUUGAGCAUCA
B5: chr6:105099394:105099495:-|3pUTR|ENSG00000112276|msi1|total|mutant (ssRNA)
RNA: GGGAGUUCUACAGUCCGACGAUCUCCGUUGAAUGAAGCUCAUUGAUUGGCCAUGCUGGUCAUGUCUAUUUUGCUUCAUCCACCCGAACCAACUUUGAGUCAGUCUCCUGUUACGUUAAAUGGCUAAGAAAAGUUCCAAAUGAACAACAGAGGAUUGAGCAUCA
B6: ENSG00000172071:stop:overlap|stop_codon|ENSG00000172071|stop_codon|NA|stop_codon (ssRNA)
RNA: GGGAGUUCUACAGUCCGACGAUCCAUCGGGAACAAAACAUUCAAGACAGUCCAACAACUCCCAUAGCCCUUUGCCAAGCAAUUAGCCUUAAGUUGUGCUAGCAACCCUAAUAGGUGAUGCAGAUAAUAGCCUACUUCUUAGAACAACAGAGGAUUGAGCAUCA
B7: chr1:223774945:223775046:+|3pUTR|ENSG00000162909|msi1|total|mutant (ssRNA)
RNA: GGGAGUUCUACAGUCCGACGAUCAAAUACACUUUGUAUCUGGACCUCAAAAUUAUGGGAACAUUUACUUAAACGGAUGAUCACCGCUGAAAAUAAUGAUACUGUCAAUUUGAGACCGCAGAAGUUUCACACAUCAAAGUAAAACAACAGAGGAUUGAGCAUCA
B8: ENSG00000107863:be:win_6451|3pUTR|ENSG00000107863|bound_else_gene|NA|bound_elsewhere_windowed (ssRNA)
RNA: GGGAGUUCUACAGUCCGACGAUCGUAAAAUACGUAACUUAAAUGAACAUAUUAAAUGUGUAUCUUUUCUUCAGAUACCAGAUUUGAUAUAAUGUUGUAACAUAGGUGUGUAGAUAGUGGAUCCUGGAUGGAACUGGCUUCUUUCAACAGAGGAUUGAGCAUCA
B9: chr4:54297753:54297953:+|3pUTR|ENSG00000134853|msi1|FALSE|unique (ssRNA)
RNA: GGGAGUUCUACAGUCCGACGAUCUUUUUAUGAUGACAAUCAAAGCCGGCCUGAGAAACACUAUUUGUGACUUUUUAAACGAUUAGUGAUGUCCUUAAAAUGUGGUCUGCCAAUCUGUACAAAAUGGUCCUAUUUUUGUGAAGACAACAGAGGAUUGAGCAUCA
B10: chr12:57516587:57516808:-|three_prime_utr|ENSG00000175197|control|control|control (ssRNA)
RNA: GGGAGUUCUACAGUCCGACGAUCCCCCCACUUGGGCCACACUACCCACCUUUCCCAGAAGUGGCUACUGACUACCCUCUCACUAGUGCCAAUGAUGUGACCCUCAAUCCCACAUACGCAGGGGGAAGGCUUGGAGUAGACAAACAACAGAGGAUUGAGCAUCA
B11: chr19:18196783:18197469:-|three_prime_utr|ENSG00000105649|control|control|control (ssRNA)
RNA: GGGAGUUCUACAGUCCGACGAUCACUACCCGGGCCUGACCCGGCCCCUACCAGCCACGGGCACAAGACCCCUGCUCCUGACUUAGCCCGUCACCCUUAUUUAUUAUUGUAGCUAUUUAUUUAUUUAUUGAAGAUGUCCCCCAGCAACAGAGGAUUGAGCAUCA
B12: chr8:144773268:144774605:-|CDS|ENSG00000196378|control|control|control (ssRNA)
RNA: GGGAGUUCUACAGUCCGACGAUCCACCAGAGGAUUCACACUGGGGAGAAACCCUACAAGUGUGGGGAGUGUGGGAAGCACUUUAGCGCCUACUCUUCCCUGAUUUAUCACCAGAGAAUCCACACCGGAGAGAAACCCUAUAAACAACAGAGGAUUGAGCAUCA
B13: chr17:61865808:61865921:-|3pUTR|ENSG00000108506|unk|FALSE|unique (ssRNA)
RNA: GGGAGUUCUACAGUCCGACGAUCUUCUAUGAGAAUGAGUUUGUAGCUGUUUCAAAUCAUGAAGUGCAUAGUAUCACAUGUGAUAGAAUAUUUAUAACUUUUUAUUAGAUGCUUAAUGUUCAAUUAAGUAAUUUUGAUGUGAAACAACAGAGGAUUGAGCAUCA
B14: chr12:2800410:2800520:+|CDS|ENSG00000004478|unk|total|mutant (ssRNA)
RNA: GGGAGUUCUACAGUCCGACGAUCAAAUACAAGCAAGCUUUACUACAGUAUAAGAAGAUCGUGUCUUGGCUGGAAUAUGAGUCCCGUUUUUCCAAUGAGGAAGCACAGAAAGCACAGGCCCUUCGACUGGCCUCUCACCUCAACCAACAGAGGAUUGAGCAUCA
B15: chr3:115809552:115809653:-|3pUTR|ENSG00000185565|unk|FALSE|unique (ssRNA)
RNA: GGGAGUUCUACAGUCCGACGAUCCUCCCUCACCUCUCCUCACCUCCACCCCCUCCCCAGAGCACUAGUCAUGCCGCAAAUGCUAGGAAGUGCCAUUUUCAUUUUCUCCACUGUGCGUGUGUGCUCAAGUCUUUCGCUCUCACGCAACAGAGGAUUGAGCAUCA
B16: chr5:128187618:128187661:+|3pUTR|ENSG00000064651|msi1_unk|FALSE|overlapping (ssRNA)
RNA: GGGAGUUCUACAGUCCGACGAUCUCCUUUAUAAGUCAUUAAAAUAAUGUUUCAUCAAAUGGUUAAAUGGACCACUGGUUUCUUAGAGAAAUGUUUUUAGGCUUAAUUCAUUCAAUUGUCAAGUACACUUAGUCUUAAUACACUCAACAGAGGAUUGAGCAUCA
B17: chr6:11183298:11183399:-|3pUTR|ENSG00000111859|msi1|FALSE|unique (ssRNA)
RNA: GGGAGUUCUACAGUCCGACGAUCACAUUUCACAUUUUUAAAACCAAAUGUUCAAUCUGUAUUACUCUUUGCCGUCUUGUAUGUAGAGGCUAUUUUUAAAUCAUUAAAUUUUUAGAUCUCUGUUUUCAUAGCCACUGGGUUUUCCAACAGAGGAUUGAGCAUCA
B18: chr1:62654060:62654161:-|CDS|ENSG00000116641|unk|total|mutant (ssRNA)
RNA: GGGAGUUCUACAGUCCGACGAUCCUUGUUUUCUACCCAUCUCUUAUCCCAACUUUUUACAAAGGUGCCCCUUACCGAAGCAGCCGAUCCAGUGGAUUUGGAAGAUUACCUCAUUACUCAUCCUUUGGCUGUGGAUUCUGGGCCCAACAGAGGAUUGAGCAUCA
B19: chr16:3727180:3727281:-|3pUTR|ENSG00000005339|msi1|FALSE|bound_elsewhere (ssRNA)
RNA: GGGAGUUCUACAGUCCGACGAUCAAUGCAAGCUUAUAAUGUAUCCCGAUAACUUUGUGAUGUUUCGGGAAGAUUUUUUUCUAUAGUGAACUCUGUGGGCGUCUCCCAGUAUUACCCUGGAUGAUAGGAAUUGACUCCGGCGUGCAACAGAGGAUUGAGCAUCA
B20: ENSG00000124766:be:win_2551|3pUTR|ENSG00000124766|bound_else_gene|NA|bound_elsewhere_windowed (ssRNA)
RNA: GGGAGUUCUACAGUCCGACGAUCUCUUUUAAAGAUUUCUGUAUAAGACUGUUGAGCAGUUUUUAAAAUAGUGUAGGAUAAUAUAAAAAGCAGAUAGAUGGCGCUAUGUUUGAUUCCUACAACGAAAUUAUCACCAGCUUUUUUCAACAGAGGAUUGAGCAUCA
B21: ENSG00000198589:be:win_8551|CDS_3pUTR|ENSG00000198589|bound_else_gene|NA|bound_elsewhere_windowed (ssRNA)
RNA: GGGAGUUCUACAGUCCGACGAUCCGCUACUGAUGGUGACAGCUGUACAUCAACUCUGCCCCUAGGAUGAGCAGAAGUACCUGGAGCAUCAUUCUCUUCUACCACAUCUGAAUGUAACUUAAAUUUGCUCAAAGAAGCAAAAUACAACAGAGGAUUGAGCAUCA
B22: chrX:108174439:108174621:-|CDS|ENSG00000197565|control|control|control (ssRNA)
RNA: GGGAGUUCUACAGUCCGACGAUCCGACCUGGACCACCAGGCCUACCUGGAGCUCCUGGCCUCCCAGGCAUUAUCAAAGGAGUUAGUGGAAAGCCAGGGCCCCCUGGCUUCAUGGGAAUCCGGGGCUUACCUGGCCUGAAGGGGCAACAGAGGAUUGAGCAUCA

This is one part of the list.

The experiment has as its target T1, UNK ZnF1-6 (called full-length) (human, UniProt Q9C0B0 30-357).
T1 sequence: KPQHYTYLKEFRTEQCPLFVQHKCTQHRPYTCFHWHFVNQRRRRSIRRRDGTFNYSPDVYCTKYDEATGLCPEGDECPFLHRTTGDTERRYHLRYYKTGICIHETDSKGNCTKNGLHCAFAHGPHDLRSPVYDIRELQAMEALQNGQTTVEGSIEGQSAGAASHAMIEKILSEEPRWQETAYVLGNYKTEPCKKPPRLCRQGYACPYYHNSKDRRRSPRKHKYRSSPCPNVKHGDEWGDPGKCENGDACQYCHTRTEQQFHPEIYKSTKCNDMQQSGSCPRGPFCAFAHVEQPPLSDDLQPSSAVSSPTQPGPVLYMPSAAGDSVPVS
Kind of experiment: nsRBNS (natural sequence RNA bind-n-seq); RBNS binding buffer (assumed for nsRBNS): 25 mM Tris pH 7.5, 150 mM KCl, 3 mM MgCl2, 0.01% Triton X-100, 500 ug/ml BSA, 20 U/ml SUPERase-In, 4 C; UNK is unkempt and MSI1 is Musashi-1; names of the RNAs are library labels; protein concentration not given here; high values mean tight binding.
For the molecule B1, the binding signal is 0.809 enrichment R.

Molecule B2 gave a binding signal of 0.67 enrichment R.

B3 registered a binding signal of 0.437 enrichment R.

B4 had a binding signal of 20.4 enrichment R.

B5 returned a binding signal of 0.186 enrichment R.

On to B6, for which the binding signal was 1.57 enrichment R.

In turn, B7 registered a binding signal of 0.325 enrichment R.

Turning to B8, the binding signal stood at 0.535 enrichment R.

In the case of B9, the binding signal was determined as 0.454 enrichment R.

As for B10, the binding signal is 0.755 enrichment R.

For B11, the binding signal was found to be 66 enrichment R.

In turn, B12 gave a binding signal of 0.587 enrichment R.

The molecule B13 gave a binding signal of 2.51 enrichment R.

Consider B14, for which the binding signal was determined as 0.608 enrichment R.

As for B15, the binding signal was 2.06 enrichment R.

B16: the binding signal was determined as 5.61 enrichment R.

In turn, B17 returned a binding signal of 2.43 enrichment R.

B18 showed a binding signal of 0.769 enrichment R.

In turn, B19 had a binding signal of 0.647 enrichment R.

B20: the binding signal stood at 0.851 enrichment R.

Regarding B21, the binding signal was determined as 0.467 enrichment R.

Molecule B22 registered a binding signal of 0.566 enrichment R.

The record behind these values is PMC12136788.
